# Experimental data published in PubChem BioAssay AID1159614 (National Center for Advancing Translational Sciences (NCATS), 2016).
# Screen size: about 45,000 compounds; about 65 (0.1%) were called active. The call rests on the fitted dose curve; in most records, active means well fitted activation curve with a large enough effect; inconclusive means small, poorly fitted or top-dose-only effect; inactive means no such curve, though single readings can be large or run the other way. The list shows a part of the results.
# Biological target: Galactocerebrosidase (Homo sapiens) (UniProt P54803)
# Sequence of UniProt P54803 (P54803 whole entry, looked up): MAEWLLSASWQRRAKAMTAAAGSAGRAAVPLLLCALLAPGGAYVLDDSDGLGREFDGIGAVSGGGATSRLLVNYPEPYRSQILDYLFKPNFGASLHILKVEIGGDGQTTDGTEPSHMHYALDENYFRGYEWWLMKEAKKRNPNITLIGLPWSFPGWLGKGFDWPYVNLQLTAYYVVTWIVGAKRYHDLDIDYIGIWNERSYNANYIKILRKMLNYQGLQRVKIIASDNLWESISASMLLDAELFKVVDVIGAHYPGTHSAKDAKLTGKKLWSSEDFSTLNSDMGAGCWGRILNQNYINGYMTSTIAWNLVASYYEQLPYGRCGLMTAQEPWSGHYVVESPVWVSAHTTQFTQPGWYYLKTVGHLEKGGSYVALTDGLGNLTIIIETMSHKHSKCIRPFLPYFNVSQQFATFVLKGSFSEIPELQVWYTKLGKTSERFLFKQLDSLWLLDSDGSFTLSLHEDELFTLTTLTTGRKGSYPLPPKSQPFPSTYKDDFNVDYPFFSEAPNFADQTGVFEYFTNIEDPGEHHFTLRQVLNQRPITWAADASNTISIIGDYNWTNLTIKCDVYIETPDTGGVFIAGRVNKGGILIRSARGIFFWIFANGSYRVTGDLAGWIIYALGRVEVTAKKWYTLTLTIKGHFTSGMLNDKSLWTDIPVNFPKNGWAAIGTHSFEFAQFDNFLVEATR
# Assay: A Novel Cell-Based Assay to Identify Small Molecules for B -Galactocerebrosidase; further: 0% is about no effect; nearly all actives have a fitted effect of over 65% in size
# Conditions: 145M-Twi-hGALC-G270D cells (Twitcher mouse brain line with human GALC G270D), HMU-beta-Gal fluorescence, 48 h; series mostly up to 57.5 µM; activation: at the top concentration
# How it was run: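 Brain-derived Twitcher mouse 145M-Twi cells stably expressing human GALC-G270D or wild-type GALC, treated live, then residual GALC activity read by fluorescence of HMU-b-Gal substrate (0.1 mM final) in citrate-phosphate buffer pH 5.2 with sodium taurocholate. Signal increase indicates enhancement.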
row,SMILES,activation
1,COc1ccc(N(C)C(=O)c2oc(=O)c3ccccc3c2-c2ccc(C)cc2)c(OC)c1,inactive: -12.4%
2,CCOC(=O)c1ccc(O)cc1,inactive: -5.25%
3,Cc1cccc(Nc2cc(C)nc3nc(-c4ccccc4)nn23)c1,inactive: 12.1%
4,CC1=C(C(=O)Nc2cccc(F)c2)C2(CCCCC2)OC1=O,inactive: -9.24%
5,COC(=O)c1c(SCC(=O)Nc2ccccc2C(F)(F)F)[nH]c2ccc(Cl)cc2c1=O,inactive: -2.33%
6,CC(C)c1ccc(CNC(=O)c2ccc(N3CCCC3)c(NC(=O)NCc3ccc(F)cc3)c2)cc1,inactive: -8.43%
7,CCOc1ccc(/C=C(\C#N)C(=O)Nc2sc3c(c2C(=O)OC)CCC3)cc1OC,inactive: -10.8%
8,CCOC(=O)C1CCN(C(c2ccc(C)cc2)c2sc3nc(-c4ccco4)nn3c2O)CC1 (stereo not given),inactive: 2.82%
9,Cc1ccc(Cl)cc1NC(=O)C(NS(=O)(=O)c1ccc2c(c1)CCC(=O)N2)c1ccccc1 (stereo not given),inactive: -9.25%
10,Cc1ccc2c(c1)c1c(c(=O)n(-c3ccccc3C)c(=O)n1Cc1cccc(F)c1)n2C,inactive: -1.78%
11,COc1cccc(CNC(=O)CCn2c(=O)c3cccn3c3cccnc32)c1,inactive: -9.84%
12,Cc1ccccc1C(=O)NC(=O)Nc1ccc(-n2nc(C(F)(F)F)cc2C(F)(F)F)cc1,inactive: -5.37%
13,COc1ccc2cc(CNc3ccccc3)c(=O)n(CC(=O)Nc3ccc(C(C)=O)cc3)c2c1,inactive: 4%
14,CCC(=O)N1CCc2cc(S(=O)(=O)NC(Cc3ccccc3)C(=O)NCc3cccc(OC)c3)ccc21 (stereo not given),inactive: -30%
15,COc1ccc(-c2cn3nc(N4CCCC(C(=O)NCCCOC(C)C)C4)sc3n2)cc1 (stereo not given),inactive: -13.8%
16,Cc1cccc(NC(=O)CC2C(=O)OCCN2Cc2ccccc2)c1 (stereo not given),inactive: 1.71%
17,CC(C)(C)C(=O)Nc1ccc2nc(SCc3ccccc3)sc2c1,inactive: 18.9%
18,CC1=C(c2ccc(F)cc2)S(=O)(=O)NC1=NCc1ccccc1Cl,inactive: 4.82%
19,Cc1ccc(C(=O)CSc2nc(-c3ccccc3)nc3c2CCCC3)cc1C,inactive: -20.2%
20,CCCN(CCC)c1cc(C)nc2nc(-c3ccc(Cl)cc3)nn12,inactive: -7.91%

row,SMILES,activation
1,Cc1nc2nc(NC(=O)C(C)C)[nH]n2c(=O)c1Cc1ccccc1,inactive: -1.97%
2,Cc1ccc(CSc2nc3cccnc3n2Cc2ccc(C(=O)NCc3cccs3)cc2)cc1,inactive: -8.37%
3,Cc1ccc(Nc2nc(C(N)=O)c(NC(=O)c3ccccc3Br)s2)cc1,inactive: -28.9%
4,Cc1ccc(NC(=O)C2CCN(C(=O)c3cnn(-c4ccccc4)c3-n3cccc3)CC2)cc1Cl,inactive: -12.4%
5,CC1=C(C(=O)Nc2ccc(C)cc2C)C(c2cccs2)n2nc(SCc3ccc(Cl)cc3)nc2N1 (stereo not given),inactive: -12.5%
6,Cc1cc(Oc2nc3ccccn3c(=O)c2/C=C(\C#N)c2nc3ccccc3s2)ccc1Cl,inactive: -11%
7,CC(=O)c1ccc(NC(=O)CC2Sc3ccccc3NC2=O)cc1 (stereo not given),inactive: -6.13%
8,COc1ccc(-c2csc3ncnc(Nc4cccc(F)c4)c23)cc1,inactive: -8.98%
9,COCC(C)NS(=O)(=O)c1ccc(N2CCCCS2(=O)=O)cc1 (stereo not given),inactive: -22.1%
10,COc1cc(Cl)c(C)cc1NC(=O)CCn1cnc2onc(-c3ccc(F)cc3)c2c1=O,inactive: -13.9%
11,CC(CNC(=O)Cn1c(-c2cccs2)cc2cc(Cl)ccc21)c1ccccc1 (stereo not given),inactive: -13.2%
12,CCOC(=O)c1ccc(NC(=O)c2sc3nc4n(c(=O)c3c2C)CCC4)cc1,inactive: -55.2%
13,CCN1C(C(=O)c2ccccc2)=C(NC(=O)c2ccc(Cl)cc2)c2ccccc2S1(=O)=O,inactive: -18.1%
14,CC(=O)N1CCCc2cc(S(=O)(=O)Nc3ccc(OC(F)(F)F)cc3)ccc21,inactive: -16.5%
15,Cc1ccc(-n2ccn(CC(=O)c3ccc(F)cc3)c(=O)c2=O)cc1C,inactive: -0.079%
16,COc1cccc(C(=O)NCCc2sc(-c3cccc(C)c3)nc2C)c1,inactive: -29.7%
17,Cc1cccc(C)c1NC(=O)c1cc(S(=O)(=O)N2CCCc3ccccc32)ccc1F,inactive: -21.9%
18,CC(C)c1ccc(NC(=O)C(Cc2ccccc2)n2cccc2)cc1 (stereo not given),inactive: -14.3%
19,Cc1ccc2c(CC(=O)Nc3c(C(=O)c4ccc(F)cc4)oc4ccccc34)coc2c1C,inactive: -27%
20,CCOc1ccc(NC(=O)Cn2c(=O)n(CC(=O)NCCc3ccccc3)c(=O)c3sccc32)cc1,inactive: -7.53%

row,SMILES,activation
1,Cc1ccc(C)c(S(=O)(=O)c2cn(Cc3ccccc3)c3cc(N4CCCC4)c(F)cc3c2=O)c1,inactive: -5.45%
2,COc1ccc2c(CNCCc3ccco3)c(C(=O)O)n(Cc3ccc(F)cc3)c2c1,inactive: -8.03%
3,CCOC(=O)c1ccc(N2C(=O)c3[nH]nc(-c4ccccc4)c3C2c2ccc(C(C)C)cc2)cc1 (stereo not given),inactive: -0.321%
4,CCn1cc(C(=O)NCc2ccc(Cl)cc2)c(=O)c2cc(S(=O)(=O)N3CCc4ccccc4C3)ccc21,inactive: -12.9%
5,CC(=O)Nc1nonc1-c1nnc(SCC(=O)Nc2c(C)cccc2C)n1-c1ccccc1,inactive: -10%
6,COc1cccc(NC(=O)c2oc3ccccc3c2NC(=O)c2ccc(OC(C)C)cc2)c1,inactive: -19.1%
7,Cc1ccc(-n2[nH]c(C)c(N=Nc3cccc(-c4cccc(C(=O)O)c4)c3O)c2=O)cc1C,inactive: -5.37%
8,Cn1c(=O)c2[nH]c(Br)nc2n(C)c1=O,inactive: -20.6%
9,CCOC(=O)c1c(C)[nH]c(C)c1S(=O)(=O)N(C)CC(=O)N1CCN(c2cccc(C)c2C)CC1,inactive: -1.15%
10,COc1cccc(C(=O)Nc2nc3nc(C)c(Cc4ccccc4)c(=O)n3[nH]2)c1,inactive: -2.5%
11,Cc1cccc(N2C(=O)C(CC(=O)Nc3ccccc3)N(C3CCCCC3)C2=O)c1 (stereo not given),inactive: -13%
12,COc1ccccc1C(=O)Nc1ccccc1C(=O)OCc1cc(=O)n2c(C)csc2n1,inactive: -31.4%
13,CCOC(=O)c1c(C)oc2nc(C)nc(NCCCN3CCN(c4ccccc4OC)CC3)c12,inactive: -25.7%
14,Cc1nn(C)c2c1c(-c1ccccc1)cc(=O)n2Cc1ccc(Br)cc1F,inactive: -11%
15,O=C(c1cccc([N+](=O)[O-])c1)N1c2nc(-c3ccco3)nn2C2(CCCCC2)[C@@H]2CCCC[C@@H]21,inactive: -5.99%
16,COc1ccc(-c2cc(C(F)(F)F)nc(SCC(=O)N3CCCCC3)n2)cc1,inactive: -7.8%
17,Cc1ccc(CNC(=O)CCCn2c(=O)c3ccccc3n(Cc3ccccc3Cl)c2=O)cc1,inactive: -0.992%
18,CCCCOc1ccc(NC(=O)c2cc3c(n(-c4ccc(Cl)cc4)c2=O)CCCC3=O)cc1,inactive: -16.1%
19,CCCC(=O)c1cc2c(cc1NC(=O)c1ccccc1F)OCCO2,inactive: -10.3%
20,Cc1ccc(OCC(=O)N(Cc2ccc(N(C)C)cc2)CC2CCCO2)cc1C (stereo not given),inactive: -13.2%
